# Source: the supplement of paper PMC9135407
# Values joined by “and” are separate entries in the source; they are usually repeats but may differ in a detail not shown here. Equal values may be shown once. Where a name gives a salt, the structure may show the parent alone. The whole screen tested about 5,800 compounds, of which about 620 (11%) showed activity.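 How the source made its calls: active = score above a cut-off or among the top three wells of a plate; in these data no inactive exceeds 0.85.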 The entries are a selection whose mix differs from that of the whole data set.
# System: primary human hepatic stellate cells (donor 1)
# Assay: scaled lipid accumulation score (0 = DMSO-like, 1 = nortriptyline-like); higher = stronger HSC inactivation (lipid re-accumulation), active = hit call of the paper
# Settings: 48 h
# [1] = library stock concentration: 10 mM
# [2] = library stock concentration: 3.33 mM
# [3] = library stock concentration: 7.7 mM
smiles,measurement,setting,value
CCCCC/C=C\C[C@@H](/C=C/C=C\C/C=C\CCCC(=O)O)OO,scaled lipid accumulation score,library stock concentration: 100 uM,inactive: ≤ -0.021
Cc1nc(N)sc1CCN [Amthamine dihydrobromide],scaled lipid accumulation score,[1],inactive: ≤ 0
[N-]=[N+]=CC(=O)OC[C@H](N)C(=O)O [Azaserine],scaled lipid accumulation score,[1],inactive: 0.135
same,scaled lipid accumulation score,library stock concentration: 11.6 mM,inactive: ≤ 0
"C[C@@H](N)Cc1cnc[nH]1 [Histamine, R(-)-alpha-methyl-, dihydrochloride]",scaled lipid accumulation score,[1],inactive: 0.085
Clc1cc(I)cc(Cl)c1NC1=NCCN1 [p-Iodoclonidine hydrochloride],scaled lipid accumulation score,[1],inactive: 0.059
COc1ccc2c3c([nH]c2c1)C(C)=NCC3 [Harmaline hydrochloride dihydrate],scaled lipid accumulation score,,inactive: 0.371
COc1ccc2c3c([nH]c2c1)C(C)=NCC3 [Harmaline],scaled lipid accumulation score,[1],inactive: 0.389
C[C@@H]1O[C@@H](O[C@H]2C[C@@H](O)[C@]3(CO)[C@H]4[C@H](O)C[C@]5(C)[C@@H](C6=CC(=O)OC6)CC[C@]5(O)[C@@H]4CC[C@]3(O)C2)[C@H](O)[C@H](O)[C@H]1O [Ouabain],scaled lipid accumulation score,library stock concentration: 8.6 mM,inactive: 0.734
CCN(C)C(=O)Oc1cccc([C@H](C)N(C)C)c1 [Rivastigmine Tartrate],scaled lipid accumulation score,[2],inactive: ≤ 0
same,scaled lipid accumulation score,[1],inactive: ≤ 0
CCN(C)C(=O)Oc1cccc([C@H](C)N(C)C)c1 [Rivastigmine],scaled lipid accumulation score,library stock concentration: 8 mM,inactive: ≤ -0.006
CCCN1CCC[C@H](c2cccc(O)c2)C1 [R(+)-3PPP hydrochloride],scaled lipid accumulation score,[1],inactive: ≤ 0
NC(=O)COc1c(F)cc(SCCNS(=O)(=O)c2ccccc2)cc1F,scaled lipid accumulation score,[1],inactive: ≤ -0.055
C[N+]1(C)CCN(c2ccccc2)CC1,scaled lipid accumulation score,[1],inactive: ≤ 0
"C[N+]1(C)CCN(c2ccccc2)CC1 [1,1-Dimethyl-4-phenyl-piperazinium iodide]",scaled lipid accumulation score,[1],inactive: ≤ -0.07
C[C@H](Cc1ccc2c(c1)OC(C(=O)O)(C(=O)O)O2)NC[C@H](O)c1cccc(Cl)c1,scaled lipid accumulation score,[1],inactive: ≤ 0
O=c1[nH]c2ccccc2n1C1CCN(CCCC(c2ccc(F)cc2)c2ccc(F)cc2)CC1 [Pimozide],scaled lipid accumulation score,[1],active: 1.21
C[N+]1(C)[C@@H]2C[C@@H](OC(=O)[C@H](CO)c3ccccc3)C[C@H]1[C@@H]1O[C@@H]12 [Methscopolamine],scaled lipid accumulation score,[2],inactive: ≤ 0
same,scaled lipid accumulation score,[1],inactive: ≤ 0
C[N+]1(C)[C@@H]2C[C@@H](OC(=O)[C@H](CO)c3ccccc3)C[C@H]1[C@@H]1O[C@@H]12 [Methscopolamine bromide],scaled lipid accumulation score,library stock concentration: 5 mM,inactive: 0.005
same,scaled lipid accumulation score,[1],inactive: ≤ 0
C[N+]1(C)[C@@H]2C[C@@H](OC(=O)[C@H](CO)c3ccccc3)C[C@H]1[C@@H]1O[C@@H]12 [(-)-Scopolamine methyl bromide],scaled lipid accumulation score,[1],inactive: ≤ 0
Cn1cc(C(=O)C(=O)N[C@H]2CN3CCC2CC3)c2ccccc21,scaled lipid accumulation score,[1],inactive: 0.403
CCn1cc(C(=O)O)c(=O)c2cc3c(cc21)OCO3 [Oxolinic acid],scaled lipid accumulation score,,inactive: ≤ 0
same,scaled lipid accumulation score,[3],inactive: ≤ 0
same,scaled lipid accumulation score,[1],inactive: ≤ 0 and inactive: ≤ -0.055
N[C@@]1(C(=O)O)CC[C@@H](C(=O)O)C1,scaled lipid accumulation score,[1],inactive: ≤ 0
CC1=NCCc2c1[nH]c1cc(O)ccc21.Cl.O.O [Harmalol hydrochloride dihydrate],scaled lipid accumulation score,,active: 0.979
"CN(C(=O)Cc1ccc(Cl)c(Cl)c1)C(CN1CCCC1)c1cccc(OCC(=O)O)c1 (centres undefined) [ICI 204,448 hydrochloride]",scaled lipid accumulation score,[1],inactive: 0.053
NCCc1ccc(O)cc1 [Tyramine],scaled lipid accumulation score,[1],inactive: ≤ 0
NCCc1ccc(O)cc1 [4-Hydroxyphenethylamine hydrochloride],scaled lipid accumulation score,[1],inactive: ≤ 0
CN(C)C(=O)Oc1cc(OC(=O)N(C)C)cc(C(O)CNC(C)(C)C)c1 (centres undefined) [Bambuterol HCl],scaled lipid accumulation score,[2],inactive: ≤ 0
same,scaled lipid accumulation score,[1],inactive: ≤ -0.001
CN(C)C(=O)Oc1cc(OC(=O)N(C)C)cc(C(O)CNC(C)(C)C)c1 (centres undefined) [Bambuterol],scaled lipid accumulation score,library stock concentration: 5.4 mM,inactive: 0.084
CN(C)C(=O)Oc1cc(OC(=O)N(C)C)cc(C(O)CNC(C)(C)C)c1 (centres undefined) [Bambuterol hydrochloride],scaled lipid accumulation score,,inactive: 0.078
O=C1NC(=O)c2c1c1c3ccccc3n3c1c1c2c2ccccc2n1C1CCC3O1,scaled lipid accumulation score,[1],active: 1.3
CCN1C[C@]2(COC)[C@H](O)C[C@H](OC)[C@@]34[C@@H]5C[C@@]6(O)[C@H](OC(=O)c7ccccc7)[C@@H]5[C@@](OC(C)=O)([C@@H]([C@H](OC)[C@H]23)[C@@H]14)[C@@H](O)[C@@H]6OC [Aconitine],scaled lipid accumulation score,,inactive: 0.045
same,scaled lipid accumulation score,library stock concentration: 3.1 mM,inactive: ≤ 0
same,scaled lipid accumulation score,[3],inactive: ≤ -0.021
same,scaled lipid accumulation score,[1],inactive: 0.042 and inactive: ≤ 0
COC[C@@H]([C@H](O)[C@H](O)C(=O)NCC[C@H](C)c1nc(/C=C/C[C@@H]2O[C@]3(C[C@@H](O)[C@@H]2C)O[C@H]([C@H](C[C@H](O)[C@H](C)[C@H](O)[C@H](C)/C=C(C)/C(C)=C/C=C/C(C)=C\C#N)OC)[C@H](OP(=O)(O)O)C3(C)C)co1)N(C)C [Calyculin A],scaled lipid accumulation score,library stock concentration: 500 uM,inactive: 0.228
COc1ccc(CCN2CCC(Nc3nc4ccccc4n3Cc3ccc(F)cc3)CC2)cc1 [Astemizole],scaled lipid accumulation score,[1],active: 0.907
CCN1C[C@]2(COC(=O)c3ccccc3N3C(=O)C[C@H](C)C3=O)CC[C@H](OC)[C@@]34[C@@H]5C[C@H]6[C@H](OC)[C@@H]5[C@](O)(C[C@@H]6OC)[C@](O)([C@@H](OC)[C@H]23)[C@@H]14 [Methyllycaconitine citrate],scaled lipid accumulation score,[1],inactive: ≤ -0.006
CCCCC/C=C\C/C=C\C/C=C\C/C=C\CCCC(=O)NC [Arachidonoyl-N-methyl amide],scaled lipid accumulation score,library stock concentration: 1 mM,inactive: 0.044
COc1ccc2c(c[n+](C)c3c4cc5c(cc4ccc23)OCO5)c1OC [Chelerythrine chloride],scaled lipid accumulation score,library stock concentration: 80 uM,inactive: ≤ -0.016
same,scaled lipid accumulation score,library stock concentration: 400 uM,inactive: ≤ -0.016
same,scaled lipid accumulation score,[1],inactive: 0.308 and inactive: 0.167
COc1ccc2c(c[n+](C)c3c4cc5c(cc4ccc23)OCO5)c1OC [Chelerythrine Chloride],scaled lipid accumulation score,[2],inactive: 0.656
